Among all 39,000 compounds or so, about 220 (0.56%) showed activity. This is one part of the list.
test system: Escherichia coli K-12 BW25113; experiment: relative growth (OD600 normalised to plate interquartile mean) (fraction); higher = less growth inhibition, active = 0.2 or less; conditions: 50 µM; LB; incubation time: overnight (16-24 h)
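Also: static incubation at 37 °C against the wild-type strain, values averaged over two biological replicates.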

| SMILES | relative growth |
| --- | --- |
| COc1ccc(NC(=O)Nc2cccc3c2O[C@H](CN(C)Cc2ccc(Cl)c(Cl)c2)[C@H](C)CN([C@@H](C)CO)C3=O)cc1 | inactive: 1 |
| C[C@H]1CN([C@@H](C)CO)C(=O)c2cccc(NC(=O)c3ccc(-c4nccs4)cc3)c2O[C@@H]1CN(C)C(=O)Nc1cccc2ccccc12 | inactive: 1.01 |
| O=C(O)[C@H](O)c1ccc(F)cc1 | inactive: 1.02 |
| C=C1SC(Nc2c(C)cccc2C)=NC12CCCCC2 | inactive: 0.974 |
| Cc1cc(C)n(CCNC(=O)[C@H]2CCCN(c3cccc4c3C(=O)N(Cc3ccc5c(c3)OCO5)C4=O)C2)n1 | inactive: 0.993 |
| CC(C)NC(=O)NCC[C@H]1CC[C@H](NC(=O)CN(C)C)[C@@H](CO)O1 | inactive: 1.05 |
| Cc1noc(C)c1S(=O)(=O)Nc1ccc2c(c1)CC(=O)N([C@H](C)CO)C[C@H](C)[C@H](CN(C)S(=O)(=O)c1cn(C)cn1)O2 | inactive: 1.02 |
| CO[C@H](C(=O)N(C)C[C@@H]1OCc2ccccc2-c2c(n(C)c3ccccc23)C(=O)N([C@H](C)CO)C[C@H]1C)c1ccccc1 | inactive: 1 |
| C[C@@H]1CN([C@@H](C)CO)C(=O)c2cc(NC(=O)Nc3ccccc3)ccc2O[C@@H](C)CCCCO[C@H]1CN(C)S(=O)(=O)c1cccc(F)c1 | inactive: 0.999 |
| C[C@@H]1CCCCO[C@@H](CN(C)S(=O)(=O)c2ccc(F)cc2)[C@H](C)CN([C@@H](C)CO)C(=O)c2cc(NC(=O)CCC(F)(F)F)ccc2O1 | inactive: 0.991 |
| CC(=O)NCCCC[C@@H]1NC(=O)[C@H]2C[C@@H](C(=O)NCCCCCCN(C)C)[C@@H](c3cccc(OCCO)c3)N2C1=O | inactive: 0.955 |
| CC(C)C#Cc1ccc2c(c1)O[C@@H](CN(C)C(=O)c1cccc(F)c1)[C@H](C)CN([C@H](C)CO)S2(=O)=O | inactive: 1.03 |
| O=c1c2cccnc2ccn1C[C@H]1COCCO1 | inactive: 0.994 |
| COC(=O)c1c2oc(c1C(=O)OC)C(=O)N[C@H](Cc1ccccc1)Cn1cc(nn1)[C@H](Cc1ccccc1)NC(=O)N[C@@H](COC(=O)NCCCCCC(=O)NO)CC2 | inactive: 1.02 |
| Cc1noc(C)c1S(=O)(=O)N(C)C[C@H]1Oc2c(NC(=O)NC3CCCCC3)cccc2C(=O)N([C@H](C)CO)C[C@@H]1C | inactive: 1 |
| COc1ccc(NC(=O)N(C)C[C@@H]2OCCCC[C@H](C)Oc3ccc(NC(=O)Nc4ccc(C(F)(F)F)cc4)cc3C(=O)N([C@@H](C)CO)C[C@@H]2C)cc1 | inactive: 1.04 |
| COCC(=O)Nc1ccc2c(c1)OC[C@H](C)N(C(=O)Cc1cccnc1)C[C@@H](C)[C@@H](OC)CN(C)C2=O | inactive: 1.04 |
| CCNC(=O)c1sc(C)nc1N | inactive: 1.03 |
| Cc1cnc(C(=O)O)c[n+]1[O-] | inactive: 0.996 |
| Cc1ccc(-c2ccc3c(c2)O[C@@H](CN(C)Cc2cncnc2)[C@@H](C)CN([C@@H](C)CO)S3(=O)=O)cc1 | inactive: 1.01 |
| C[C@@H]1CN([C@@H](C)CO)C(=O)c2cccc(NC(=O)CCCCCC(=O)Nc3ccccc3N)c2O[C@@H]1CN(C)S(C)(=O)=O | inactive: 0.992 |

| SMILES | relative growth |
| --- | --- |
| C[C@H]1CN([C@@H](C)CO)C(=O)c2cccc(NC(=O)c3nc4ccccc4s3)c2O[C@@H]1CN(C)CC1CCCCC1 | inactive: 0.984 |
| C[C@H]1CN([C@@H](C)CO)C(=O)CCCn2nncc2CO[C@@H]1CN(C)Cc1ccc2c(c1)OCCN2C | inactive: 1.04 |
| CC(=O)Nc1cccc(O)c1 | inactive: 1.08 |
| O=c1oc2cc3occ(-c4ccccc4)c3cc2c2ccccc12 | inactive: 0.907 |
| CN(C)CCCNC(=O)C[C@@H]1CC[C@@H]2[C@@H](COc3ccc(NC(=O)c4cccc(F)c4)cc3C(=O)N2C)O1 | inactive: 0.965 |
| Cn1cnc(S(=O)(=O)N2C[C@H](O)COC[C@@H]3O[C@@H](CC(=O)NC4CCCC4)CC[C@H]32)c1 | inactive: 0.992 |
| CCS(=O)(=O)NCC[C@@H]1CC[C@@H](NC(=O)Cc2ccccn2)[C@@H](CO)O1 | inactive: 0.996 |
| O=C(Nc1cccc(C(F)(F)F)c1)c1ccc2ccccc2c1 | inactive: 0.997 |
| COc1ccc(OCCC(=O)NN)cc1 | inactive: 1.02 |
| Cc1noc(C)c1NC(=O)Nc1ccc2c(c1)C(=O)N([C@H](C)CO)C[C@H](C)[C@H](CN(C)Cc1ccc(C(=O)Nc3ccccc3N)cc1)OCCCC[C@@H](C)O2 | inactive: 1 |
| Cc1noc(C)c1S(=O)(=O)N(C)C[C@@H]1Oc2c(NC(=O)C3CCOCC3)cccc2C(=O)N([C@@H](C)CO)C[C@@H]1C | inactive: 0.989 |
| O=C(Nc1cccc2cccnc12)[C@@H]1[C@H](c2ccc3ccccc3c2)CC(=O)N1C(=O)OCc1ccccc1 | inactive: 1.03 |
| CCOC(=O)c1c[nH]c(=S)[nH]c1=O | inactive: 0.984 |
| Cc1noc(C)c1S(=O)(=O)N(C)C[C@@H]1Oc2ccc(N(C)C)cc2CC(=O)N([C@H](C)CO)C[C@@H]1C | inactive: 0.973 |
| O=c1c(O)c(-c2ccc(O)c(O)c2)oc2cc(O)cc(O)c12 | inactive: 0.937 |
| C[C@H]1CN([C@@H](C)CO)C(=O)c2cc(NC(=O)Nc3ccc(C(F)(F)F)cc3)ccc2O[C@@H]1CN(C)S(=O)(=O)c1ccc(F)cc1 | inactive: 1.02 |
| C[C@H](CO)N1C[C@H](C)[C@@H](CN(C)C(=O)Cc2ccncc2)Oc2cc(-c3cncnc3)ccc2S1(=O)=O | inactive: 1.01 |
| C[C@@H]1CN([C@H](C)CO)C(=O)Cc2cc(NS(=O)(=O)c3ccc(F)cc3)ccc2O[C@H]1CN(C)S(=O)(=O)c1cn(C)cn1 | inactive: 0.991 |
| C[C@H]1CN([C@@H](C)CO)C(=O)Cc2cc(NC(=O)Cc3cn(C)c4ccccc34)ccc2O[C@H]1CN(C)Cc1ccc(Cl)c(Cl)c1 | inactive: 1 |
| C[C@@H]1CCCCO[C@@H](CN(C)C(=O)Nc2ccccc2)[C@@H](C)CN([C@H](C)CO)C(=O)c2cc(NC(=O)c3ccncc3)ccc2O1 | inactive: 1.03 |
| C[C@H](CO)N1C[C@H](C)[C@H](CN(C)S(=O)(=O)c2ccc(Cl)cc2)OCCCC[C@H](C)Oc2ccc(NS(=O)(=O)c3ccc(Cl)cc3)cc2C1=O | inactive: 1.03 |

| SMILES | relative growth |
| --- | --- |
| Cn1cnc(S(=O)(=O)N2C[C@H](O)COC[C@H]3O[C@@H](CC(=O)N4CCN(c5ccccc5)CC4)CC[C@@H]32)c1 | inactive: 1.01 |
| Cc1ccc(S(=O)(=O)Nc2ccc3c(c2)C(=O)N([C@H](C)CO)C[C@@H](C)[C@H](CN(C)Cc2ccccc2)OCCCC[C@H](C)O3)cc1 | inactive: 1.04 |
| OC[C@@H](O)[C@@H](O[C@@H]1O[C@H](CO)[C@H](O)[C@H](O)[C@H]1O)[C@H](O)[C@@H](O)CO | inactive: 0.984 |
| C[C@@H]1CN([C@@H](C)CO)C(=O)c2cc(NC(=O)Nc3ccc(F)cc3)ccc2O[C@@H](C)CCCCO[C@@H]1CN(C)Cc1ccc(C(=O)O)cc1 | inactive: 0.88 |
| COc1ccc(CCNS(=O)(=O)c2cn(C)c(=O)n(C)c2=O)cc1 | inactive: 0.979 |
| C[C@@H]1CN([C@@H](C)CO)C(=O)c2cc(NS(=O)(=O)c3ccc(Cl)cc3)ccc2O[C@@H](C)CCCCO[C@@H]1CN(C)CC1CCCCC1 | inactive: 0.988 |
| C[C@@H]1CN([C@H](C)CO)C(=O)c2cccc(NS(C)(=O)=O)c2O[C@H]1CN(C)C(=O)Nc1ccccc1 | inactive: 0.985 |
| C[C@H](CO)N1C[C@H](C)[C@H](CN(C)Cc2ccc(C(=O)Nc3ccccc3N)cc2)Oc2ccc(NC(=O)Nc3cccc4ccccc34)cc2C1=O | inactive: 1.01 |
| CCCC#Cc1cnc2c(c1)C(=O)N([C@@H](C)CO)C[C@H](C)[C@H](CN(C)C(=O)c1ccc3c(c1)OCO3)O2 | inactive: 1.02 |
| COc1ccc(COC[C@]23N=C4SCc5ccccc5CN4[C@H](c4ccccc4O2)[C@H]3CO[Si](C)(C)C(C)(C)C)cc1 | inactive: 1.02 |
| COc1ccc(-c2ccc3c(c2)O[C@H](CN(C)CC2CCOCC2)[C@@H](C)CN([C@@H](C)CO)S3(=O)=O)cc1 | inactive: 1.05 |
| C[C@@H]1CCCCO[C@@H](CN(C)S(=O)(=O)c2ccc(F)cc2)[C@H](C)CN([C@H](C)CO)C(=O)c2cc(NS(=O)(=O)c3cn(C)cn3)ccc2O1 | inactive: 1.01 |
| C[C@@H]1CCCCO[C@@H](CN(C)C(=O)Cc2ccccc2)[C@@H](C)CN([C@@H](C)CO)C(=O)c2cc(NC(=O)Nc3ccc(F)cc3)ccc2O1 | inactive: 1 |
| O=[N+]([O-])c1ncn(Cc2ccccn2)n1 | inactive: 0.926 |
| C[C@H](CO)N1C[C@H](C)[C@H](CN(C)Cc2ccc(C(=O)Nc3ccccc3N)cc2)Oc2c(NS(=O)(=O)c3cn(C)cn3)cccc2C1=O | inactive: 1.01 |
| C[C@@H]1CCCCO[C@@H](CN(C)Cc2ccc(C(=O)O)cc2)[C@H](C)CN([C@@H](C)CO)C(=O)c2cc(NC(=O)c3ccccc3)ccc2O1 | inactive: 1.02 |
| C[C@H](CO)N1C[C@H](C)[C@@H](CN(C)Cc2ccc(C(F)(F)F)cc2)Oc2ccc(NC(=O)Nc3ccc(F)cc3)cc2C1=O | inactive: 1.02 |
| C[C@H]1CN([C@@H](C)CO)C(=O)Cc2cc(NC(=O)Cc3ccccc3)ccc2O[C@H]1CN(C)C(=O)Nc1ccc(C(F)(F)F)cc1 | inactive: 1.01 |
| CNC(=O)NCc1ccc2c(c1)OCO2 | inactive: 1 |
| C[C@H]1CN([C@@H](C)CO)C(=O)c2cccc(NC(=O)Nc3cccc4ccccc34)c2O[C@@H]1CN(C)C(=O)Nc1ccc2c(c1)OCO2 | inactive: 0.994 |
| C[C@H]1CN([C@@H](C)CO)C(=O)c2cc(Br)cnc2O[C@@H]1CN(C)Cc1cccc(C(=O)O)c1 | inactive: 1 |

— the supplement of paper PMC9446081
